From the supplement of paper PMC10126150
Values marked as one replicate rest on one cluster of the flow cell; about a third of the high ones do not repeat.

System: ATP
Assay: switch fluorescence ratio, 500 uM ATP over buffer (Cy3 cluster intensity, sum of 5 cycles each) (fold (ratio)); higher = stronger signal-on switching upon ATP binding; sequences stand for … in TCGTCGGCAGCGTCAGATGTGTATAAGAGACAGTTTTTTTTTTTTTTTTTTTTTTTTT…TC
Settings: aptamer strand: ATP DNA aptamer (quencher-CACCTGGGGGAGTATTGCGGAGGAAGG + anchor), 100 nM annealed; ATP concentration: 500 uM; one replicate
Summary of the method: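 Exposure to 500 uM ATP lasted 15 min at 22 °C before imaging, and a selection-buffer image was taken beforehand, for Cy3-labelled switching-strand clusters on a modified Illumina MiSeq flow-cell annealed to 100 nM quencher-labelled ATP aptamer. Five buffer/ATP cycles were run with NaOH stripping and re-annealing between them. The fluorescence ratio per cluster is summed target-cycle over summed buffer-cycle Cy3 intensity, averaged per switch-domain sequence. Clusters outside 100-1000 RFU were excluded.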

Sequence | switch fluorescence ratio
GGCGAACATC | 1
ATGTGCTTTC | 0.983
AATAGCTGTA | 0.955
ATGTGCGTGA | 0.992
CGCCTAGTGG | 1.03
GTCATCCTCG | 0.994
GCGAAAACTT | 1.04
ATGCAAATAG | 1.15
GTAGAAGCTT | 0.939
TGCAGGAACA | 0.993
TAACCTCGCA | 1.63
GATGCTCACT | 0.976
ATTTCGGATT | 1.01
CCTCGATCTA | 1.09
TTGACAACGG | 1.03
ACGGGCAGGA | 1.04
GCATCCGTAT | 1.04
CGGGATTTTA | 1.01
TCGCTGGTTT | 1.06
TAACACTGT | 1
GAAGGGTGGT | 0.966
CGTGAGATGG | 0.978
GTGCTTTGGT | 0.998
GACTCGGAGT | 0.998
AACAGGTCGT | 1.05
TTTATGTTCT | 0.999

Sequence | switch fluorescence ratio
TTTGAGTCGA | 0.953
CTTGAAGTAG | 1
ACTTACATTG | 1.2
AGTGAGCTAA | 1.02
CAGACGTTAC | 3.28
TCTATCGCTA | 1.8
GTGATGCTAA | 0.983
GGGTCGTTAC | 1.36
GAGCCTTAGT | 0.965
TTGGCTTTCA | 0.98
GAATGAAGTT | 0.989
TCATATATAG | 0.985
GTTATAG | 1.07
CATCTTGCTG | 1.02
CAGATGTCCG | 1.01
AAGTATTACG | 0.944
TAGTATCTTG | 1
GTTGTGCACG | 0.988
TTCATAGTAA | 1.05
CATATTTAGT | 0.974
TGCCGGCAGG | 1.07
CGATTGATCG | 1.01
AAGAAACTGA | 1.04
GCCATAAAAA | 0.971
GTGAACGCAG | 1.08
GGGGACAGCC | 0.954

Sequence | switch fluorescence ratio
CGAACGGGTG | 1.08
ACTTCCTGAT | 1.08
GTATCAGCGA | 1.02
TAAGTTTTG | 0.973
GAGTGCTCTC | 0.996
CTTGGTTAAG | 0.951
CGCCTTTTGC | 1.02
GGCAGGTACT | 1.03
CAGTCGTGTT | 0.977
CCGTAATGCC | 1.57
TTTTGAGT | 0.937
TATAAAAGAT | 1.01
ATCGGGAGTA | 0.958
CGCTCACGGG | 1.08
TTTTGTGTGA | 0.971
GGGAGACTCT | 1.04
CATGGAAGTC | 0.994
AAGGGTTGTG | 1
GACCTCTTGA | 0.963
ATCAGAAAG | 1
CATAATTGA | 0.989
TTGGAGTCGT | 0.973
TTCTCTACGG | 1.07
AAAAAATGT | 0.984
GCTGGGGGTC | 1.01
ACGCATCGCT | 1.08

Sequence | switch fluorescence ratio
GGATCTTTTA | 0.96
CGCACGGCCC | 1.3
CTACATCTCG | 0.992
AAATCTAAGC | 0.959
CTCAACGCGT | 1.04
ATGCGGGTCG | 0.997
GAATGTTTAA | 1.02
TCCGTGTGCG | 0.985
CGCCTGAGCG | 0.961
CGGCGCGGTT | 1.04
GTACGTATTC | 1.09
CCCTGGTCG | 1.02
TTAAAGTATC | 2.17
ACATGGGCGG | 1.01
GGTGGAGTT | 1.06
TAACTGGCA | 0.978
TAATGGAATA | 1.05
TACAGTTATT | 1.05
GAAATCCCCT | 1.04
CTTGATGGAG | 1.01
TTACAATCA | 1.09
CGTGAATGAG | 0.975
GCTGAAACGT | 1.08
GGTGGCCCGC | 1.03
GTGATCGCTT | 1.03
CTTGCTGGCG | 0.977

Sequence | switch fluorescence ratio
GAGAAAAATT | 1
TGAAGGGCTC | 0.976
GGTGTCTGG | 1.02
AGGTAGCCGC | 0.994
TGACGAGCCG | 1.03
GCTAGGGATA | 1.02
GTTCGTAGTG | 0.951
AGCACCAGGT | 1.85
TTTGTCTTTG | 1.04
CTACACTACG | 1.54
ACAATTCCA | 1.02
AGATTTCCTT | 1.02
GCGAAGGAAA | 1.05
GGATAAGAGT | 0.967
GCCATGTGTG | 1.03
AAACTAATCG | 0.941
CTTAAGGGG | 0.983
CCGGGTGCAG | 1.11
GACTTGATAG | 0.981
TCGCGCAGTA | 1.05
TTCACCAAAT | 1.02
TCTTCTTACT | 1
AGCAGGCTGA | 1.03
TTAGTTAGGG | 1.03
GGTGGGGACT | 1.02
TGTATCACG | 0.991

Sequence | switch fluorescence ratio
TTGGATTGTC | 1.02
AAGAACTTA | 1.03
CCAAACCTG | 1.07
CGATTGAAGA | 1.01
ATGCAATGCA | 0.956
CCCTTTGCGT | 1.04
TGTATTTTGC | 0.936
AGTCCGTGTT | 1.03
CCCAGGGAGC | 1.17
GGGTCGGCCA | 1
TTGGGGCTAT | 2.28
CAGCAGATA | 1.1
TTGCATTCAT | 1.08
GATAGTGTTA | 0.945
CTTTATGCAT | 1.04
CTCGATGGTT | 1
CAAAAAATGG | 0.992
GAGGTCAGGA | 1.02
AGGAGGCTGT | 1.02
GGCTCAGTAA | 1.31
GGTATTTGCG | 0.957
GCATATGCAC | 1.04
TCTAGTTTCA | 0.977
GAGTTGTCTG | 1
TCTATGTCGT | 0.983
CGATGGTTCA | 1

Sequence | switch fluorescence ratio
CCGATTTACG | 1.27
GGGACTTAAA | 1.02
CATCTAGGGT | 1.02
AGGCCTTAGA | 1.04
ACAGGCGCAA | 1.1
GCAGGTAATT | 0.98
CAGGTATCT | 1.04
TTCTCACTAA | 1.05
CATGATCGGA | 1.07
TACATTACTA | 1.28
GCATTCGCGA | 1.26
ACGTAGGAGG | 1.06
TTTAGTGTCA | 0.994
CAGTACTGA | 0.991
TGTAACTACA | 1.05
TATCACACCG | 1
GTTGATGTTT | 0.984
CTGGAAACGA | 1.04
CGAGGGTCGA | 1.03
CCGATGCCCT | 1.44
GGCATGTCAC | 1.02
AGAGTTCGCT | 0.973
TTGGAGCGGA | 1.14
CTCCAAGTAG | 1.77
ACGAACAGGT | 1.1
GTTGTAGACT | 1

Sequence | switch fluorescence ratio
GTAACTCTGA | 0.982
GAACCCTGAC | 2.42
ACATTCAGGG | 1.08
CAGAATCAGG | 0.955
GAGTTACCAT | 1.01
TCTGGATCTA | 1.03
GGCAGGAAGG | 0.997
TTTCGATTGA | 0.977
GCTTTAGTCG | 1.01
AGACGCTCTA | 1.04
TGTCATGGAA | 0.97
GGGAGATTTG | 1.02
AAACATTTAT | 1
GGCACCCACA | 1.29
GCTTAGAGTT | 1.02
TTCACGGGCT | 1.01
TGAAGTGCGA | 0.989
CCCATGGTAA | 1.02
CGTCATGGCA | 0.98
